# Results: PubChem BioAssay AID2451 (National Center for Advancing Translational Sciences (NCATS), 2010)
# Hit rate of the full screen: of about 290,000 compounds, about 2,100 (0.72%) were called active. This list was built around the results that the source calls inconclusive (neither active nor inactive); the mix of calls is not that of the screen. Calls come from the whole dose curve; as a rule, active = well fitted inhibition curve with a large enough effect; inconclusive = small, poorly fitted or top-dose-only effect, or effect the other way; inactive = flat fitted curve, though single readings scatter. Potencies of inconclusive entries are doubtful fits and often do not repeat.
# Target: Fructose-bisphosphate aldolase (Giardia intestinalis (strain ATCC 50803 / WB clone C6)) (UniProt A8B2U2)
# UniProt A8B2U2, sequence (A8B2U2 whole entry, looked up): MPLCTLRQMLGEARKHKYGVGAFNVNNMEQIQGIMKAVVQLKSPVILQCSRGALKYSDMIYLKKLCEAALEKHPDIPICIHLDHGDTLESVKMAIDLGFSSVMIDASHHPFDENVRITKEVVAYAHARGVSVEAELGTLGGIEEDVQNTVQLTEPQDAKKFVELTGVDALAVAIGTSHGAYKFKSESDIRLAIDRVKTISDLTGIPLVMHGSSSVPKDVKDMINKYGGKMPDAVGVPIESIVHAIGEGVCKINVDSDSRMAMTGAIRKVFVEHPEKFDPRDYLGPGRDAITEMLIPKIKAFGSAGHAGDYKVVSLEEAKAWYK
# Experiment: qHTS Assay for Inhibitors of Fructose-1,6-bisphosphate Aldolase from Giardia Lamblia; note: nearly all actives have a fitted effect of over 55% in size
# Conditions: purified Giardia FBPA; activity, negative = inhibition: at 59.6 µM (top of the series) unless noted
# Outline: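 Giardia FBPA (40 nM reagent) was preincubated 10 min at RT with compound (up to 57.5 uM final), then substrate plus GAPDH/TPI/NAD/arsenate coupling system with diaphorase/resazurin was added; resorufin fluorescence (525/598 nm) was read after 20 min.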
# % is set by controls: 0 for no effect and ±100 for the full control effect; potency is the fitted concentration of half-maximal effect; tags give direction and shape of the fitted curve.
Compound,Potency,"activity, negative = inhibition"
Cn1c(=O)c2c(nc(N/N=C/c3ccncc3)n2Cc2ccccc2)n(C)c1=O,"inconclusive: 15.8 µM [inhibitor, single point]",–
Cc1nc(-c2ccc(NC(=O)c3ccccc3Br)cc2)cs1,–,inactive: -11.3%
COc1ccc(CN2CCN(C(=O)Cn3ncn4cccc4c3=O)CC2)c(OC)c1OC,–,inactive: -1.1%
CC(=O)NC(Cc1ccc(N(CCCl)CCCl)cc1)C(=O)NCC(=O)NCC(=O)O (configuration not stated),"inconclusive: 17.7 µM [inhibitor, single point]",–
CCCC(=O)N(CCN1CCOCC1)c1nc2c(OC)ccc(C)c2s1,"inconclusive: 22.4 µM [inhibitor, single point]",–
Cc1ccc(C(=O)Nc2scc(-c3ccccc3)c2C(=O)O)o1,–,inactive: 1.12%
O=C(CN1CCC(N2CCCCC2)CC1)N1CCCc2ccccc21,"inconclusive: 22.3 µM [inhibitor, partial curve]",–
O=C(CCCN1C(=O)/C(=C/c2cccs2)SC1=S)Nc1cccnc1,–,inactive: -9.35%
O=S1(=O)CCOC[C@H](CC2CCCCC2)N1Cc1ccccc1Br,–,inactive: 3.33%
CC(=O)c1c(O)cc(C)n(Nc2nc(C)cc(C)n2)c1=O,"inconclusive: 3.54 µM [inhibitor, single point]",–
Cc1nn(-c2ccc([N+](=O)[O-])cc2)c2c1C(c1cccc(Br)c1)N1C(=N2)C(=O)Nc2ccccc21 (configuration not stated),–,inactive: 2.83%
COc1ccc(CNC(=O)COC(=O)c2ccc3c(c2)OCCO3)cc1,–,inactive: 0.572%
O=C(Nc1nccs1)c1cccc2ccccc12,"inconclusive: 39.8 µM [inhibitor, single point]",–
CC(C)(C)C1CC=C2C(C#N)=C(N)C(C#N)(C#N)C(c3cccs3)C2C1 (configuration not stated),"inconclusive: 15.8 µM [inhibitor, single point]",–
O=C(CSc1cccc[n+]1[O-])CSc1cccc[n+]1[O-],active: 15.8 µM,–
Cc1ccc(NC(=O)CCC(=O)NNS(=O)(=O)c2ccccc2)c(C)c1,–,inactive: -0.017%
O=C(NCc1cccs1)c1ccc(N2CCCCC2)nc1,–,inactive: -8.64%
Oc1ccc2ccccc2c1N=Nc1nccs1,active: 12.6 µM,–
Cc1nc(N)nc(N/N=C/c2c(F)cccc2Cl)n1,"inconclusive: 15.8 µM [inhibitor, partial curve]",–
Cc1ccc2[nH]c3c(c2c1)CCCC3=O,"inconclusive: 12.6 µM [inhibitor, partial curve]",–
O=C(CN1C(=O)c2ccccc2C1=O)NN1C(=O)c2ccccc2C1=O,"inconclusive: 19.9 µM [inhibitor, single point]",–
O=C(c1cccc(F)c1)N1CCN(Cc2cccc(Br)c2)CC1,active: 14.1 µM,–
COc1cc2c(c(OC)c1OC)CCc1cnoc1-2,–,inactive: -9.96%
O=C(NCc1ccccn1)Nc1ccc(Cl)cc1Cl,–,inactive: -2.01%
CCc1c(C)nc(SCc2cccnc2)[nH]c1=O,"inconclusive: 35.5 µM [inhibitor, single point]",–
Clc1ccc(-c2nnc3cccc(Cl)n23)c(Cl)c1,–,inactive: -6.9%

Compound,Potency,"activity, negative = inhibition"
O=C(CSc1nc2ccccc2s1)c1cc2ccccc2o1,–,inactive: 1.84%
C=CCOc1ccc(CNCc2cccnc2)cc1OCC,"inconclusive: 14.1 µM [inhibitor, partial curve]",–
Nc1c(C(=O)c2cccs2)oc2ccccc12,–,inactive: 3.88%
COc1ccc(/C=N/NC(=O)c2ccoc2C)cc1CN1CCN(c2ccc(F)cc2)CC1,–,inactive: 18.2%
Cc1cccc(-n2c(C)cc(C=C3C(=O)c4ccccc4C3=O)c2C)c1,"inconclusive: 12.6 µM [inhibitor, partial curve]",–
CN(C)S(=O)(=O)c1cccc(NC(=O)c2cc(=O)[nH]c(=O)[nH]2)c1,"inconclusive: 14.1 µM [inhibitor, partial curve]",–
CCOC(=O)C1=C(C)N(CCCCCC(=O)O)C(=O)NC1c1ccccc1Cl (configuration not stated),"inconclusive: 31.5 µM [activator, single point]",–
Cc1cnc(C(=O)Nc2ccccc2-c2ccc(C)o2)cn1,"inconclusive: 19.9 µM [inhibitor, partial curve]",–
CNc1ncnc2ccc(-c3cccc(OC)c3)cc12,–,inactive: -0.144%
Cc1ccc2nc(NC(=O)c3ccc(-c4nc5ccccc5s4)s3)sc2c1,–,inactive: 3.13%
Cc1cc(C)c(C#N)c(SCc2ccccc2)n1,–,inactive: -3.06%
N#Cc1cc2c(nc1SCC(O)CS(=O)(=O)Cc1ccc(Cl)cc1)CCCC2 (configuration not stated),–,inactive: 3.68%
COc1cccc(C2=CC(c3ccc(OC)c(OC)c3OC)n3nnnc3N2)c1 (configuration not stated),"inconclusive: 3.15 µM [activator, single point]",–
CCN(C(=S)Nc1cccnc1)c1cccc2ccccc12,"inconclusive: 5.61 µM [inhibitor, full curve]",–
CC(=O)NC1=C(Nc2ccc(N(C)C)cc2)C(=O)c2ccccc2C1=O,–,inactive: -27.6%
COc1cccc(OC)c1OCCCCN1CCC(Cc2ccccc2)CC1,"inconclusive: 17.7 µM [inhibitor, partial curve]",–
Cc1cccn2cc(-c3ccc(F)cc3)nc12,–,inactive: -5.15%
C=CCN(CC#CCOc1ccccc1OC)CC=C,active: 19.9 µM,–
O=C(c1ccccc1F)N1CCN(Cc2ccc3c(c2)OCO3)CC1,"inconclusive: 14.1 µM [inhibitor, partial curve]",–
C[C@@]1(C(=O)O)NCCc2cc(O)c(O)cc21,active: 12.6 µM,–
S=c1[nH]nc(-c2c[nH]c3ccccc23)o1,"inconclusive: 25.1 µM [inhibitor, partial curve]",–
c1ccc(-c2nc3c([nH]2)CCc2nonc2-3)cc1,"inconclusive: 15.8 µM [inhibitor, partial curve]",–
CCOc1ccc(OCC)c(NC(=O)CN2CCN(c3cccc(C)c3)C(C)C2)c1 (configuration not stated),"inconclusive: 44.6 µM [inhibitor, single point]",–
C=CCNCCCCOc1ccc(Br)cc1C,"inconclusive: 19.9 µM [inhibitor, single point]",–
C=CCn1c(O)c(CN2CCCCC2)c(C)c(C#N)c1=O,"inconclusive: 12.6 µM [inhibitor, partial curve]",–
COc1ccc(OC)c(C(=O)CSc2nnc(Cc3cccs3)n2CCc2ccccc2)c1,"inconclusive: 2.81 µM [inhibitor, full curve]",–
